Laboratory results as given in paper PMC12136788.
Where a chain is given by its changes, count along the chain named. The list shows a part of the results.

T1: UNK ZnF1-3 (human, UniProt Q9C0B0 31-174)
T1 sequence: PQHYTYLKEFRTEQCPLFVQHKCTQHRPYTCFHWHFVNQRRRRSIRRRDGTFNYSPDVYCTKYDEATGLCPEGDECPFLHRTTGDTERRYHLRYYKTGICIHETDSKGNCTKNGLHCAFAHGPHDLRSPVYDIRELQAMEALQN

B1: chr1:180459674:180459675:+_ENSMUSG00000026494_ENSMUST00000161017|mus_hu|FALSE|FALSE (ssRNA)
RNA: GGGAGUUCUACAGUCCGACGAUCGCCUCUCUUUAUUCCCAGCUACCGAAUUCAUGGUGGCUUUUCCAGAGGAGAGUAUCUAAAGGUUCCACCGACGCUACAUCCAGAAGGUCCUCCAACCCAGAAGCGUCCCCCGGCUGCAGGCAACAGAGGAUUGAGCAUCA
B2: chr2:157388114:157388115:+_ENSMUSG00000067786_ENSMUST00000109526|mus_mus|FALSE|FALSE (ssRNA)
RNA: GGGAGUUCUACAGUCCGACGAUCUUGGUGGAGGUGGUCCCUGUCUCCAGGAGCUUACAAUCUAGCUGGGGAGACACUACUAAUGCACACUUAAACCAGUACAAUUAGCGACUACCACAAUAUUGACCACAACUGCUGCGUGAGCAACAGAGGAUUGAGCAUCA
B3: chr1:45984709:45984710:-_ENSG00000117450_ENST00000319248|hu_hu|motif|central (ssRNA)
RNA: GGGAGUUCUACAGUCCGACGAUCUUUUAGCAUUUCCUGAAGACAUCUUCCUAUCAGCAGUCCCAACACAAGUCGCAGAAACGGACCACCGACACCAGGCAAGAACAAGACGCGCAAGAGCUCUCCGGGGCGCUGCCUUUAUAGCAACAGAGGAUUGAGCAUCA
B4: chrX:101157612:101157613:-_ENSMUSG00000056537_ENSMUST00000070705|mus_mus|FALSE|FALSE (ssRNA)
RNA: GGGAGUUCUACAGUCCGACGAUCAAAUUAUCAGUAACAGGUUAGCAAUUCAUCUGGUACCGAAAUCAAAUGUUUAAGUCCUAAAAUGUUGUUUUUAAAAUAUUCUUUCCAUCCUGAAAGAGAAACUAGAGAAAAGGCAUGAUACAACAGAGGAUUGAGCAUCA
B5: chr13:49748638:49748639:+_ENSG00000102531_ENST00000398316|hu_hu|FALSE|FALSE (ssRNA)
RNA: GGGAGUUCUACAGUCCGACGAUCACUUGUACCAUAGUCAUUUCUGGCCGAUAGUCUGAAUUUACAGCCCAUUGCUGGUGAAAGUUUAGUAAUUUUAAAUUGUUUCUGUGAGCCCAUGUAACACUGACAAAAUUCUCCAUUUCCCAACAGAGGAUUGAGCAUCA
B6: 81641522_81643749_1588_3pUTR_ENSG00000153956_ENST00000356860|human|control|control (ssRNA)
RNA: GGGAGUUCUACAGUCCGACGAUCCUAAAACCAUUGGUCUUCCCAAAACAUCCAAAUAUUCCUGAGUAUUGAUUCUUAUUGCACCAAUGGAAGGAAUUUCAUAAUAAUAACCUUUGUUUUCACAGGCCAUCCACUGAAUAGGUCCAACAGAGGAUUGAGCAUCA
B7: chrX:71549762:71549763:+_ENSMUSG00000019087_ENSMUST00000019231|mus_mus|mus_mus_mus_hu_False|18_68 (ssRNA)
RNA: GGGAGUUCUACAGUCCGACGAUCAAACCCGUGUACUUCUUAUUGUUAGCACAACAUCACCAGAAAAAAAACAUAACAGCCAAGCAGGACAGACAGUUAAGUAGUACUUCCACACUCCGCAAAUUCAGGAGCCCUAUAACCUUACAACAGAGGAUUGAGCAUCA
B8: chr18:42401725:42401726:-_ENSMUSG00000024493_ENSMUST00000097590|mus_mus|motif|central (ssRNA)
RNA: GGGAGUUCUACAGUCCGACGAUCAGGCCGAACCCAACAAUUUGUCUGCCCAAACAUAGUCUCAGGUCUGAGUGUAGCAGCGGCGGGGAAGAUAUUUUUCCCUUUCAGGCCGCUUAAUUUUGAUGGAUAUGGUUCAAGCACCUUCAACAGAGGAUUGAGCAUCA
B9: chr18:52892545:52892546:-_ENSG00000196628_ENST00000354452|hu_hu|FALSE|FALSE (ssRNA)
RNA: GGGAGUUCUACAGUCCGACGAUCGAACAAUAAAUUGCAGCUUUUACUCUGAGUGAGAACAAAAUAUAAAGCACCAAUUUAAAAAAUAAUCAAAUGACUACAAUUUACUUUUUUGCUUUGUUUACAGAUUUGAAAAACUUUAAUCAACAGAGGAUUGAGCAUCA
B10: 155186719_155186839_170_ncRNA_ENSMUSG00000029068_ENSMUST00000139066|mouse|control|control (ssRNA)
RNA: GGGAGUUCUACAGUCCGACGAUCUCGAGGCCGCUCGACAUGGACGGCGUGAAGCGGAGCUUGUCGUCGGGCAGCAGGCAGUUUUCCAAGGUGAUGAGCACGCCCGAGUAGAGCCUGUCGCCGAUCAGCACCCCCUGAGACCCCCAACAGAGGAUUGAGCAUCA
B11: chr2:228221723:228221724:+_ENSG00000168958_ENST00000354503|hu_hu|motif|central (ssRNA)
RNA: GGGAGUUCUACAGUCCGACGAUCGACCAUUUCUCUUUUAGCACGUUCUUUGUUCUCCUCUUCCAGAAGUUGUAGACGUCGGUUUAGUUUGAUUAUCUGUCGUCUUAGUGAAGCUGCAUCUACAACAGUCAGGUCAUCUGACGUCAACAGAGGAUUGAGCAUCA
B12: chr2:42509997:42509998:+_ENSG00000143924_ENST00000318522|hu_mus|hu_hu_hu_mus_True|1_68 (ssRNA)
RNA: GGGAGUUCUACAGUCCGACGAUCUCGCUGAGUCCUCUCCUCAUAAUUAAACAGGACUACCACUGAGGCAAUGAAAUAAACUAUCUCCCCUGUGGGAAGCAGGUAUACAUUCGCUCUACAGUCCUUUCCUCGAUAACCAUAUGCCAACAGAGGAUUGAGCAUCA
B13: chr4:140556289:140556290:+_ENSMUSG00000036622_ENSMUST00000037055|mus_mus|mus_mus_mus_hu_False|78_78 (ssRNA)
RNA: GGGAGUUCUACAGUCCGACGAUCGAUGGAGCUCACCAGGCCCCCUUUUGCCGUGCAGAACCCUGUCCGGGUCACCACUGCCAGGACGUGCGGUCCCACAUAGGCCCGGGCCUGCAAGAUGAGGGUCCCGCAGAAGAGUGUGUGCAACAGAGGAUUGAGCAUCA
B14: chr4:140556289:140556290:+_ENSMUSG00000036622_ENSMUST00000037055|mus_mus|mus_mus_mus_hu_False|38_68 (ssRNA)
RNA: B13 RNA with C66G, G69A, A99G, C105U
B15: chr1:166823625:166823626:+_ENSG00000143157_ENST00000367875|hu_mus|motif|central (ssRNA)
RNA: GGGAGUUCUACAGUCCGACGAUCAUCAAAGUUUAUUACUGGGAUCAGUUUCUAUCUAGGGAGUGCCAGUCCCAGUGAGCGGUGGUAAUUCUCAGGAAACAGCUAUUCUGCUCAAUAGUUGUACUGGGGCUCUGUUAGGCAUAGCAACAGAGGAUUGAGCAUCA
B16: chr6:146524949:146524950:-_ENSMUSG00000040250_ENSMUST00000032427|mus_mus|FALSE|FALSE (ssRNA)
RNA: GGGAGUUCUACAGUCCGACGAUCCUGCCUACAGGAUUCUGCCAUGUAUGGGCAGUGAUCCACAACAAACACUGUUUUAUGAGAUUCAGAAAAAAUCUUCAUUUUGUUUUAACUUUCGUGCCUGGUCCUGCAGUGAAUGAACGGCAACAGAGGAUUGAGCAUCA
B17: 27506802_27509066_2324_CDS_ENSG00000077235_ENST00000561623|human|control|control (ssRNA)
RNA: GGGAGUUCUACAGUCCGACGAUCCAGUCCGGGAACUACAAUGGGGUGAUAAUUUCUAAGCGGGGUUAUGCCCAUUUUAUUAUCACUUUUUUUCAUCCGUCCACUUUCUGAUCUAGAGGAAGCACUCAGCUGAGAGUCCCCUGACAACAGAGGAUUGAGCAUCA
B18: 17640840_17640960_252_CDS_ENSG00000125844_ENST00000246043|human|control|control (ssRNA)
RNA: GGGAGUUCUACAGUCCGACGAUCAGCAGGAGCCCGCACUGGUUCUCGAAGGAGGACAGUCACAUUGGGGGCUGGAUCAUGAUCAGGUAUCUUCCCAUUAGGUUUCUCUUCCUUUUUCUUGGUCUUUCCUUUCUUCUCCACUGUCAACAGAGGAUUGAGCAUCA
B19: 65537091_65537211_888_ncRNA_ENSMUSG00000040652_ENSMUST00000153700|mouse|control|control (ssRNA)
RNA: GGGAGUUCUACAGUCCGACGAUCCUGUUCUUUAUGGAAAACAAUUUCAACGAGUCAACUCCGAGAACACAAUGGGCAACCCUCAACCUGAGCCCCUCAAUGUCCUUCCCUAGACAGCCAGAGACCCUCUCCUCUGUCCCAAGGCAACAGAGGAUUGAGCAUCA
B20: 154754478_154756338_64_3pUTR_ENSMUSG00000053870_ENSMUST00000066568|mouse|control|control (ssRNA)
RNA: GGGAGUUCUACAGUCCGACGAUCUAUUGCAACCACAUCCCAGAAUUCUCCAGCUGCCACGGGUUUGCCUCUCAGCUCAGAAAAUCUGCGCAGUUUCCGCAGGGUGGCUUCGCGGAGAGACGCCAUGGCCGACUUCCGGGAGCACAACAGAGGAUUGAGCAUCA
B21: 186313572_186313692_3588_CDS_ENSG00000047410_ENST00000367478|human|control|control (ssRNA)
RNA: GGGAGUUCUACAGUCCGACGAUCUGUUGUUUCUUCCAAAUGCUGACGGACUGAUGCCAUUUUUGAAACCUGCUCCUUCGCAGCUUGUAGAGCUUCAACAUCAGCAGCAUGCAGCAUCAAUUCUCUCUCAUACUUAUUCUGAGCCAACAGAGGAUUGAGCAUCA
B22: chr3:37096630:37096631:-_ENSG00000093167_ENST00000421276|perfect_dup|FALSE|FALSE (ssRNA)
RNA: GGGAGUUCUACAGUCCGACGAUCUUGUUCCAAGGUAGCUAUGUCUUGUUCUGCUUUCGAAAGCUUGAAUUUGUAUUCACUAAUUUGUCUAUUGGCAUCUCUCUGCAUCUCGAUGAACUGCAAGUCUGAGCCGUUCUGCAGUCCCAACAGAGGAUUGAGCAUCA

These binders were tested against T1, UNK ZnF1-3 (assay: nsRBNS (natural sequence RNA bind-n-seq); RBNS binding buffer (assumed for nsRBNS): 25 mM Tris pH 7.5, 150 mM KCl, 3 mM MgCl2, 0.01% Triton X-100, 500 ug/ml BSA, 20 U/ml SUPERase-In, 4 C; UNK is unkempt and MSI1 is Musashi-1; names of the RNAs are library labels; protein concentration not given here; high values mean tight binding).

Row | Binder | binding signal
1 | B1 | 1.45 enrichment R
2 | B2 | 1.64 enrichment R
3 | B3 | 1.02 enrichment R
4 | B4 | 1.39 enrichment R
5 | B5 | 1.29 enrichment R
6 | B6 | 0.997 enrichment R
7 | B7 | 2.18 enrichment R
8 | B8 | 0.968 enrichment R
9 | B9 | 1.07 enrichment R
10 | B10 | 0.832 enrichment R
11 | B11 | 0.412 enrichment R
12 | B12 | 0.882 enrichment R
13 | B13 | 1.46 enrichment R
14 | B14 | 0.908 enrichment R
15 | B15 | 1.07 enrichment R
16 | B16 | 0.701 enrichment R
17 | B17 | 0.392 enrichment R
18 | B18 | 0.754 enrichment R
19 | B19 | 1.04 enrichment R
20 | B20 | 0.695 enrichment R
21 | B21 | 0.543 enrichment R
22 | B22 | 0.628 enrichment R
